Test results taken from PubChem BioAssay AID1508624 (National Center for Advancing Translational Sciences (NCATS), 2021).
About 120 (0.25%) of roughly 48,000 compounds were called active. Roughly 4% stayed inconclusive and do not appear here. Calls come from the whole dose curve; as a rule, active = well fitted activation curve with a large enough effect; inconclusive = small, poorly fitted or top-dose-only effect, or another doubt; inactive = no such curve, though single readings can be large or run the other way. This is one part of the list.

assay: Primary qHTS for Identification of Small Molecule Activators of Huntingtin-Antisense Promoter Activity; conditions: HEK293 HTT-AS promoter firefly luciferase reporter, 24 h; series mostly up to 57.5 µM; activity change, positive = activation: at the top concentration; note: nearly all actives have a fitted effect of over 55% in size
Procedure, shortened: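 HEK293 Fluc reporter, 2,500 cells/well, 24 h pre-culture; cpds up to 57.5 uM final, 24 h 37 degrees C; Dual-Glo, 10 min RT; normalized vehicle = 0%, zero RLU = -100%.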

Activity change, positive = activation, inactive:
O=C(NCc1ccc2c(c1)CCN2C(=O)c1ccncc1)c1cccc(Cl)c1 -23.7%, CN(C(=O)CCCOc1ccc2[nH]c(=O)ccc2c1)C1CCCCC1 -17.1%, NNC(=O)c1ccncc1, Cc1oc(-c2ccccc2F)nc1CS(=O)(=O)CC(=O)N1CCN(c2cccc(C(F)(F)F)c2)CC1 -54.5%, N#Cc1ccc(C(=O)Nc2ccc(Cl)c(-c3nc4cc(Cl)ccc4o3)c2)c(F)c1 1.63%, COc1ccc(N2CCN(C(=O)Cn3ncc4c3-c3cc(C)ccc3OC4)CC2)cc1 -14.9%, Cc1ccc(NC(=O)c2cccc(NC(=O)N3CCSc4ncccc43)c2)cc1Cl 14%, COc1ccc(-c2nc3sc(CCNC(=O)C(=O)Nc4cc(C)cc(C)c4)c(C)n3n2)cc1 -6.78%, CCN(C(=O)c1nn(-c2ccc(OC)c(Cl)c2)c(=O)c2c1c1ccccc1n2C)c1cc(OC)ccc1OC -14.5%, Cc1ccc(C(=O)NCC(c2cccs2)S(=O)(=O)c2cccs2)cc1C (configuration not stated) -15.6%, CCOc1ccc(NC(=O)CN(C)S(=O)(=O)c2ccc3c(c2)c(=O)n(C)c(=O)n3C)cc1 -19%, COc1cc(OC)cc(C(=O)Nc2cc(-c3nc4ccccc4s3)ccc2OC)c1 3.62%, CC(=O)c1ccc(NC(=O)CSc2cn(CC(=O)N3CCCCC3)c3ccccc23)cc1 -16.5%, CCOc1ccc(-c2cn(-c3ccc(OC)cc3)c(SCC(=O)Nc3ccccc3Cl)n2)cc1 -19.7%, COc1ccc(F)cc1S(=O)(=O)NCCc1csc(-c2ccc(Cl)cc2)n1 -30.6%, CCc1ccc(NC(=O)C2CCN(c3nnc(-n4c(C)ccc4C)s3)CC2)cc1 -18.8%, CCC(=O)Nc1sc2c(c1C(=O)Nc1ccc(OC)cc1)CCC(C(C)(C)C)C2 (configuration not stated) -3.67%, O=C(Nc1ccc(S(=O)(=O)N2CCC(c3nc4ccccc4s3)CC2)cc1)c1ccc(F)cc1 -11.9%, Cc1ccc(NC(=O)C2Cc3ccccc3N2C(=O)c2ccccc2)cc1Cl (configuration not stated) -12.1%, Cc1cc(C)c(S(=O)(=O)NCCc2cc3c(C)ccc(C)c3[nH]c2=O)c(C)c1 1.37%, Cc1ccc(C)c(-n2nnc(-c3nc(-c4ccc(Cl)cc4)no3)c2N)c1 27%, CCCC(=O)NCCc1nc2ccccc2n1Cc1c(F)cccc1Cl -18.6%, CC(=O)c1cc(-c2ccccc2)n(CC(=O)NC2CCCCCC2)c1C -7.33%, O=C(Cn1c(=O)n(Cc2cccs2)c(=O)c2cccnc21)Nc1ccccc1F -13.5%, Cc1cc(O)c(C(c2cccc(F)c2)N2CCC(C)CC2)c(=O)n1Cc1ccco1 (configuration not stated) 5.51%, O=C(NCCc1ccc(Cl)cc1)c1cccn1-c1nnc(N2CCCCC2)s1 -19.9%, COc1ccc(N2CCN(C(=O)CSCc3nc(-c4ccccc4Cl)oc3C)CC2)cc1 -41.2%, CCc1nc(-c2cc(S(=O)(=O)N3CCN(c4ccc(F)cc4)CC3)ccc2OC)no1 -19.3%, CN(C1CCCCC1)S(=O)(=O)c1ccc(C(=O)Nc2sc3c(c2C(N)=O)CC(C)(C)NC3(C)C)cc1 -7.95%, Cc1cccc(NC(=O)CSc2nc3c(c(=O)[nH]2)CN(Cc2ccc4c(c2)OCO4)CC3)c1C 4.21%, CCc1ccc(-n2c(=O)c3cccnc3n2CC(=O)NCc2ccc(F)cc2)cc1 -12.9%, O=C(NCc1cccc(F)c1)c1ccc(CS(=O)c2ccccc2Cl)o1 (configuration not stated) -9.84%, CCOC(=O)N1CCc2c(sc3c2c(=O)n(Cc2ccccc2)c(=O)n3CC(=O)Nc2c(C)cccc2C)C1 -20.7%, Cn1c(=O)c(=O)n(C)c2cc(S(=O)(=O)N3CCN(c4ccccc4F)CC3)ccc21 -31.4%, COc1ccc(C(=O)NCC(c2cccnc2)N2CCN(c3ccc(F)cc3)CC2)cc1 (configuration not stated) -26.2%, O=C(NCC(c1ccc(Cl)cc1)N1CCCCC1)c1ccc(F)cc1 (configuration not stated) -5.15%, COc1cccc(-c2cc(C(F)(F)F)nc(-n3nc(C)c(Br)c3C)n2)c1 -16.7%, Nc1nc(N)c(S(=O)(=O)c2ccccc2)c(Nc2ccc(Br)cc2)n1 -38.4%, Cc1ccc(-n2c(SCc3ccccc3F)nc3[nH]ncc3c2=O)cc1C -3.38% [at 11.5 µM, percent change from vehicle, -100% = no light], COc1ccccc1CNC(=O)c1cccn1-c1nnc(N2CCCC2)s1 4.12%, Cc1cccc(NC(=O)Cn2nc(-c3ccc(Cl)cc3)c3ccccc3c2=O)c1 -17.2%, O=C(CSc1ccc2nc(-c3ccccc3)cn2n1)Nc1ccccc1C(F)(F)F -34.3%, Cc1cccc(NC(=O)C(=O)c2cc(C)n(-c3ccccc3)c2C)c1C -2.58%, CCOc1cccc2cc(-c3nc4sc(C(=O)Nc5ccc(C)cc5)c(C)c4c(=O)[nH]3)c(=O)oc12 -14.1%, Clc1cccc(-c2nnc(CN3CCN(c4ccccn4)CC3)o2)c1 -3.04%, Cc1cc(S(=O)(=O)Nc2cc3c(cc2N2CCOCC2)n(C)c(=O)n3C)ccc1F -15.1%, COC(=O)c1c(SCC(=O)Nc2cccc(C(F)(F)F)c2)[nH]c2ccccc2c1=O 9.65%, CCc1nc2ccc(C(=O)NCCc3ccc(SC)cc3)cc2nc1CC 28.4%, COc1ccc(NC(=O)C(CC(C)C)NC(=O)C2CCCCC2)c(OC)c1 (configuration not stated) -10.6%, COc1ccc(-n2c(=O)c3ccccc3n(Cc3ccc(F)cc3Cl)c2=O)cc1OC -9.7%, COc1ccc(NC(=O)C2CCN(C(=O)c3sc4nc[nH]c(=O)c4c3C)CC2)c(OC)c1 -1.4%, CCc1ccccc1N1CC(c2nnc(NC(=O)c3ccco3)s2)CC1=O (configuration not stated) -13%, CCN(CC)S(=O)(=O)c1ccc2c(c1)N(CC(=O)N1CCN(c3cc(Cl)ccc3C)CC1)C(=O)CO2 -10.6%, Cc1cccc(N2CCN(c3nc4ccccc4c4nc(-c5ccccc5)nn34)CC2)c1C -5.75%, CC(=O)OCc1cnc(C)c2oc(=O)c(C(=O)Nc3ccc(F)cc3C)cc12 -10.4%, CC(=O)Nc1nonc1-c1nnc(SCC(=O)Nc2ccccc2Cl)n1C -13.1%, COc1cc(NC(=O)c2cc(-c3ccccc3O)no2)cc(OC)c1OC -30%, CCOc1ccc(CNC(=O)C2CCN(C3=NS(=O)(=O)C(c4ccc(C)cc4)=C3CC)CC2)cc1 -41%, COc1ccc(C2CC(=O)c3cc(-c4nc(-c5ccc(Cl)cc5)cs4)c(=O)[nH]c3C2)cc1 (configuration not stated) -4.4%, Cc1ccc(C(=O)Nc2ccc(-n3c(C)nc4ccccc4c3=O)cc2)cc1[N+](=O)[O-] -27.3%, CCN(C(=O)CCS(=O)(=O)c1cccc2nsnc12)c1cccc(C)c1 -14.2%, CCOC(=O)c1ccc(N2C(=O)c3n[nH]c(-c4cccs4)c3C2c2ccc(O)c(OC)c2)cc1 (configuration not stated) -64.6%, O=C(Nc1nc2n(n1)C(c1ccc(F)cc1)C=C(c1ccc(Cl)cc1)N2)c1ccco1 (configuration not stated) -23.1%, CCOc1ccc2oc(=O)cc(CN3CCN(c4ccc(OC)cc4)CC3)c2c1 -27.1%, CCN(C(=O)c1cc2c(s1)-c1c(C)cccc1OC2)c1cc(C)ccc1C -18.3%, COc1ccc(OC)c(NC(=O)Cn2c(=O)oc3cc(S(=O)(=O)NCc4ccccc4)ccc32)c1 -17.1%, O=C(NCC12CC3CC(CC(C3)C1)C2)c1cc2nc(-c3ccc(Cl)cc3)cc(C(F)(F)F)n2n1 -14.2%, Cc1cc2oc(C(=O)N(Cc3ccccc3)C3CCS(=O)(=O)C3)cc(=O)c2cc1C (configuration not stated) 11.6%, CCOc1ccc(S(=O)(=O)n2nc(C)c(S(=O)(=O)N3CCCCCC3)c2C)cc1 -12.3%, CN1CCN(c2ncc3c(n2)CCN(Cc2ccccc2Cl)C3)CC1 -13.2%, Cc1ccccc1C(=O)Nc1ccccc1C(=O)OCc1cc(=O)n2nc(C3CC3)sc2n1 10.3%, Cc1ccc(NC(=O)CN2C(=O)C(c3ccccc3)=NC2(C)C)cc1C -4.15%, CCc1ccc(-n2c(=O)c3cccnc3n2CC(=O)N(CC)c2cccc(C)c2)cc1 -20.7%, COc1cccc(C(=O)Nc2ccc3c(c2)CCCN3C(=O)c2cccs2)c1OC 0%, Cc1ccc(S(=O)(=O)OCC(=O)Nc2ccc(C(=O)O)c(O)c2)cc1 -12.2%, Cc1cc(-c2nc3ncccc3o2)ccc1NC(=O)COc1ccc(C(C)(C)C)cc1 17.2%, Cc1[nH]c(C)c(Cl)c(=O)c1Cl -6.95% [at 25.1 µM, percent change from vehicle, -100% = no light], Cc1c2cnn(-c3ccccc3)c(=O)c2c(C)n1CC(=O)NCc1ccc(Cl)cc1 -13.1%, CCOc1ccc(Nc2c(S(=O)(=O)c3ccc(C)cc3)cnc3ccccc23)cc1 -35.9%, CCc1ccc(NC(=O)CSc2nnc(-c3nonc3NC(C)=O)n2-c2ccccc2)cc1 -29.2%, CC1(C)O[C@@H]2C[C@H]3[C@@H]4C[C@H](F)C5=CC(=O)CC[C@]5(C)[C@H]4[C@@H](O)C[C@]3(C)[C@]2(C(=O)CO)O1 -4.55%, COc1cccc(Cn2c(SCc3ccc(C(=O)N4CCC(C)CC4)cc3)nc3ccncc32)c1 -29.8%, CCC(Cc1ccccc1)NC(=O)c1csc2c1CCCCC2 (configuration not stated) -12.5%, COc1cc(NC(=O)CCCSc2nc(-c3ccco3)cc(C(F)(F)F)n2)cc(OC)c1OC -31.2%, C[C@H]1C[C@H]2[C@@H]3CCC4=CC(=O)C=C[C@]4(C)[C@H]3C(=O)C[C@]2(C)[C@@]1(O)C(=O)CO 29.3%, COc1ccc2oc(-c3ccc(C)c(NC(=O)c4ccc(N5CCCCC5)c([N+](=O)[O-])c4)c3)nc2c1 -3.67%, CC(C)(C)OC(=O)N1CCC(c2c(C(=O)NCCN3CCOCC3)cnn2-c2ccccc2)CC1 -35.5%, COc1ccccc1NC(=O)C1=C(C)Nc2ncnn2C1c1ccc[nH]1 (configuration not stated) -14.2%, CCN(CC)C(=O)Cn1c(SCC(=O)Nc2ccc(C)c(C)c2)nc2ccccc21 -16.1%, COc1ccc(CNC(=O)CN2CCSc3ccccc32)c(OC)c1 -8.44%, CCN(c1ccccc1)S(=O)(=O)c1cc(C(=O)Nc2ccc(Br)cc2)ccc1F -42.5%, CCOC(=O)c1c(Nc2ccccc2)nnc(-c2ccccc2)c1-c1ccccc1 -21.2%
